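In this assay, cells in 96-well plates receive the compound at five concentrations for 48 hours. Endpoints are linearly interpolated between the surrounding concentrations. GI50 is the concentration that inhibits growth by half. Definition used: TGI = concentration required for complete inhibition of growth.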
Test system: NCI-H322M lung
Assay: NCI tumour cell line growth inhibition, 48 h

Going from `CN1CCN(c2nc(-c3cnc4ccccc4n3)cc3ccccc23)CC1` to `Cn1ncc2ncc(-c3ccc4ncc(C#N)c(N5CCc6cc(F)c(Cl)cc65)c4c3)cc21`, the GI50 falls from over 45.9 µM to 4.49 µM.

Compared with `O=c1oc2ccc(-c3ccc(F)cc3F)cc2c(=O)n1-c1ccc(F)c(F)c1`, `CC1OC(O[C@@H]2[C@H](O)C(CO)OC(O[C@H]3COC(O[C@H]4CC[C@]5(C)[C@H]6CC[C@]78OC[C@@]9(CCC(C)(C)C[C@H]97)[C@H](O)C[C@@]8(C)[C@]6(C)CC[C@H]5C4(C)C)[C@@H](OC4OC(CO)[C@@H](O)[C@@H](O)[C@@H]4O)[C@@H]3O)[C@H]2OC2OC[C@@H](O)[C@@H](O)[C@@H]2O)[C@@H](O)[C@@H](O)[C@H]1O` (stereo partly drawn) is 1.7-fold higher in GI50: 1.45 µM for the first, 2.41 µM for the second.

`CN1CCN(c2nc(-c3cnc4ccccc4n3)cc3ccccc23)CC1` and `Cn1ncc2ncc(-c3ccc4ncc(C#N)c(N5CCc6cc(F)c(Cl)cc65)c4c3)cc21` cannot be ordered by TGI: over 100 µM for the first, over 100 µM for the second.

First: O=c1oc2ccc(-c3ccc(F)cc3F)cc2c(=O)n1-c1ccc(F)c(F)c1
Second: CC1OC(O[C@@H]2[C@H](O)C(CO)OC(O[C@H]3COC(O[C@H]4CC[C@]5(C)[C@H]6CC[C@]78OC[C@@]9(CCC(C)(C)C[C@H]97)[C@H](O)C[C@@]8(C)[C@]6(C)CC[C@H]5C4(C)C)[C@@H](OC4OC(CO)[C@@H](O)[C@@H](O)[C@@H]4O)[C@@H]3O)[C@H]2OC2OC[C@@H](O)[C@@H](O)[C@@H]2O)[C@@H](O)[C@@H](O)[C@H]1O (stereo partly drawn)
The TGI of the first is 3.9-fold higher: 17.7 µM for the first, 4.49 µM for the second.
